Source: the BET-seq Pho4 binding data (Le et al. 2018)
Some of the results follow. Values were computed here from the reads of four pooled replicates and scatter widely.

The sequences below were run against T1, Pho4 (S. cerevisiae) (UniProt P07270) (assay: relative binding free energy (BET-seq); higher = weaker binding). Settings: reference: library average.
T1 sequence: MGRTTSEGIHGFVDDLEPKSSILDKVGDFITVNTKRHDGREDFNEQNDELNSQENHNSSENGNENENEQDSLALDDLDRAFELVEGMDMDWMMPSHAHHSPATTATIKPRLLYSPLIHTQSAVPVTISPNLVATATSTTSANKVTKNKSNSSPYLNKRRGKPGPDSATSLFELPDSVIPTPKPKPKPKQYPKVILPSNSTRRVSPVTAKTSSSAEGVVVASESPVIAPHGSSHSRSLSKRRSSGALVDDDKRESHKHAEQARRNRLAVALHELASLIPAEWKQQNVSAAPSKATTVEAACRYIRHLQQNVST
TGGTACACGTGGGGTG was tested, and the “relative binding free energy” value was -0.14 kcal/mol. For AGGTGCACGTGGCAGG, the “relative binding free energy” value was -0.11 kcal/mol. With TGGTGCACGTGCTACG the “relative binding free energy” value was 0.03 kcal/mol. TTAGTCACGTGGCGGT was tested, and the “relative binding free energy” value was -0.03 kcal/mol. For GGATGCACGTGTGTAC, the “relative binding free energy” value was 0 kcal/mol. In the case of ATTTGCACGTGAATCG, the “relative binding free energy” value is reported as 0.25 kcal/mol. With TGCATCACGTGGTTAT the “relative binding free energy” value was 0.1 kcal/mol. CATGTCACGTGCGGGT was tested, and the “relative binding free energy” value was 0.16 kcal/mol. In the case of AGATACACGTGGATGT, the “relative binding free energy” value is reported as 0.12 kcal/mol. With GGGGGCACGTGAAGAA the “relative binding free energy” value was 0.21 kcal/mol. In the case of TGTAGCACGTGTCTCG, the “relative binding free energy” value is reported as -0.01 kcal/mol. With TTTGGCACGTGAGGAC the “relative binding free energy” value was 0.13 kcal/mol. For TGTTGCACGTGTAATT, the “relative binding free energy” value was 0.1 kcal/mol. With GGGGTCACGTGATCAT the “relative binding free energy” value was 0.21 kcal/mol. CGTATCACGTGTCGGT was tested, and the “relative binding free energy” value was 0.22 kcal/mol. With TATGACACGTGAGAGG the “relative binding free energy” value was 0.22 kcal/mol. For TGGTACACGTGGGCCG, the “relative binding free energy” value was -0.15 kcal/mol. In the case of GTGGACACGTGAAAAG, the “relative binding free energy” value is reported as 0.44 kcal/mol. With AAATACACGTGTTGGG the “relative binding free energy” value was 0.1 kcal/mol. ACGTGCACGTGTGGTA was tested, and the “relative binding free energy” value was -0.11 kcal/mol. With GTTATCACGTGAGACG the “relative binding free energy” value was 0.37 kcal/mol. TTGTACACGTGTCGGA was tested, and the “relative binding free energy” value was 0.12 kcal/mol. For CGGCGCACGTGTGGTA, the “relative binding free energy” value was -0.13 kcal/mol. For TTATGCACGTGAAGTC, the “relative binding free energy” value was 0.24 kcal/mol. For AGGGTCACGTGTAGAA, the “relative binding free energy” value was 0.29 kcal/mol. TTGTTCACGTGGTTTT was tested, and the “relative binding free energy” value was 0.3 kcal/mol. For TTCGTCACGTGAATAG, the “relative binding free energy” value was 0.28 kcal/mol. TATGTCACGTGGATGT was tested, and the “relative binding free energy” value was 0.21 kcal/mol. In the case of TTTTACACGTGGTTTT, the “relative binding free energy” value is reported as 0.12 kcal/mol. For GAGTCCACGTGTGCGG, the “relative binding free energy” value was 0.11 kcal/mol. GGTTTCACGTGTTGAT was tested, and the “relative binding free energy” value was 0.38 kcal/mol. TTGATCACGTGTTTAA was tested, and the “relative binding free energy” value was -0.01 kcal/mol. GATCTCACGTGGGGGG was tested, and the “relative binding free energy” value was 0.27 kcal/mol. With GTGAACACGTGGGGAG the “relative binding free energy” value was -0.13 kcal/mol. AACGTCACGTGGTTTA was tested, and the “relative binding free energy” value was 0.2 kcal/mol. AGGAACACGTGAGCGG was tested, and the “relative binding free energy” value was 0.22 kcal/mol. With TTATGCACGTGTGTTG the “relative binding free energy” value was -0.02 kcal/mol. CAATTCACGTGAGTTT was tested, and the “relative binding free energy” value was 0.45 kcal/mol. In the case of GGAGGCACGTGCAGGC, the “relative binding free energy” value is reported as -0.02 kcal/mol. For TTTCACACGTGGTCGG, the “relative binding free energy” value was 0.15 kcal/mol. CCTTTCACGTGGTGTT was tested, and the “relative binding free energy” value was 0.25 kcal/mol. With TGGGCCACGTGGGTTC the “relative binding free energy” value was -0.17 kcal/mol. In the case of GTCTTCACGTGGGTGT, the “relative binding free energy” value is reported as 0.08 kcal/mol. With GATAACACGTGTGTTG the “relative binding free energy” value was 0.05 kcal/mol. With TCTGACACGTGTGAGG the “relative binding free energy” value was 0.06 kcal/mol. With GTCGACACGTGAAGGG the “relative binding free energy” value was 0.39 kcal/mol. TGGTGCACGTGATTTA was tested, and the “relative binding free energy” value was 0.04 kcal/mol. GGTGGCACGTGAATCT was tested, and the “relative binding free energy” value was 0.32 kcal/mol. For TGATGCACGTGATGAT, the “relative binding free energy” value was 0.17 kcal/mol. For GGATCCACGTGTATTT, the “relative binding free energy” value was 0.3 kcal/mol. For GGTGGCACGTGTGATA, the “relative binding free energy” value was 0.06 kcal/mol. For TCGGGCACGTGAGGTG, the “relative binding free energy” value was 0.17 kcal/mol. With GTATACACGTGGGTCA the “relative binding free energy” value was -0.09 kcal/mol. GCTTGCACGTGGATGG was tested, and the “relative binding free energy” value was 0.04 kcal/mol. With CGTGGCACGTGTGAGC the “relative binding free energy” value was -0.08 kcal/mol. For TTAATCACGTGAGATT, the “relative binding free energy” value was 0.32 kcal/mol. ACGTGCACGTGGGCGG was tested, and the “relative binding free energy” value was -0.15 kcal/mol. With TGAGACACGTGTAGGC the “relative binding free energy” value was 0.04 kcal/mol. TTGGGCACGTGCAAAT was tested, and the “relative binding free energy” value was -0.07 kcal/mol. With GGGGGCACGTGCTACA the “relative binding free energy” value was -0.05 kcal/mol. For TGACGCACGTGATGTA, the “relative binding free energy” value was 0.15 kcal/mol. GGGAACACGTGGGTTC was tested, and the “relative binding free energy” value was 0.03 kcal/mol. GGAGCCACGTGCAGGT was tested, and the “relative binding free energy” value was 0.08 kcal/mol. With TTGTTCACGTGACTTG the “relative binding free energy” value was 0.36 kcal/mol. With TGGTCCACGTGAAGGG the “relative binding free energy” value was 0.2 kcal/mol. In the case of TTATGCACGTGGACAG, the “relative binding free energy” value is reported as -0.13 kcal/mol. For TCAGTCACGTGATTGG, the “relative binding free energy” value was 0.19 kcal/mol. For GTGTCCACGTGGTATA, the “relative binding free energy” value was 0.12 kcal/mol. In the case of CGAGGCACGTGTTGTG, the “relative binding free energy” value is reported as -0.11 kcal/mol. AGTCACACGTGGTCGT was tested, and the “relative binding free energy” value was 0.09 kcal/mol. In the case of ATGGTCACGTGGAGCA, the “relative binding free energy” value is reported as 0.07 kcal/mol. With GTGAGCACGTGTTGTA the “relative binding free energy” value was -0.21 kcal/mol. In the case of TACAGCACGTGATGTT, the “relative binding free energy” value is reported as 0.18 kcal/mol. With TGAATCACGTGGGATA the “relative binding free energy” value was 0.15 kcal/mol. In the case of CGGGGCACGTGGGTGA, the “relative binding free energy” value is reported as -0.24 kcal/mol. For ACTTGCACGTGGGTTA, the “relative binding free energy” value was -0.1 kcal/mol. For GATATCACGTGGGGGG, the “relative binding free energy” value was 0.08 kcal/mol. With TCAGTCACGTGAAGGT the “relative binding free energy” value was 0.31 kcal/mol. For TCTGTCACGTGTCTGA, the “relative binding free energy” value was 0.27 kcal/mol. With AGTGGCACGTGCGTAA the “relative binding free energy” value was -0.19 kcal/mol. For CTTTTCACGTGATGCT, the “relative binding free energy” value was 0.28 kcal/mol. TTTGTCACGTGGATAG was tested, and the “relative binding free energy” value was 0.09 kcal/mol. TGTCACACGTGGTTGA was tested, and the “relative binding free energy” value was 0.08 kcal/mol. In the case of ATCGTCACGTGGTAGA, the “relative binding free energy” value is reported as 0.12 kcal/mol. In the case of TAGGTCACGTGGGGAT, the “relative binding free energy” value is reported as 0 kcal/mol. GGGTACACGTGTTAGA was tested, and the “relative binding free energy” value was 0.08 kcal/mol. For AGATACACGTGGGCTT, the “relative binding free energy” value was -0.01 kcal/mol. With GGTTTCACGTGGATAA the “relative binding free energy” value was 0.2 kcal/mol. For GTATGCACGTGGTAGG, the “relative binding free energy” value was -0.01 kcal/mol. For TGTTGCACGTGGAAAC, the “relative binding free energy” value was 0.2 kcal/mol. In the case of TGCTGCACGTGTGGAA, the “relative binding free energy” value is reported as -0.03 kcal/mol. With TGGGCCACGTGAGCTG the “relative binding free energy” value was 0.11 kcal/mol. With TTATGCACGTGAAAGG the “relative binding free energy” value was 0.22 kcal/mol. TATTTCACGTGAGGAA was tested, and the “relative binding free energy” value was 0.25 kcal/mol. For CCGGCCACGTGGTGGG, the “relative binding free energy” value was -0.06 kcal/mol. For AATATCACGTGTTTTC, the “relative binding free energy” value was 0.17 kcal/mol. For TGAGTCACGTGTTAGA, the “relative binding free energy” value was 0.04 kcal/mol. In the case of TTTTGCACGTGCTGGC, the “relative binding free energy” value is reported as 0.08 kcal/mol. In the case of GTAAGCACGTGTGGGC, the “relative binding free energy” value is reported as -0.08 kcal/mol. In the case of TTTATCACGTGAGATT, the “relative binding free energy” value is reported as 0.37 kcal/mol. With TGGGTCACGTGTTGGA the “relative binding free energy” value was 0.21 kcal/mol. With TTGAACACGTGGAGTT the “relative binding free energy” value was 0.04 kcal/mol. In the case of TTGGACACGTGGGCGC, the “relative binding free energy” value is reported as -0.12 kcal/mol. For CGTTACACGTGTGTTG, the “relative binding free energy” value was 0.07 kcal/mol. With TGGGGCACGTGCTACG the “relative binding free energy” value was -0.28 kcal/mol. TGTGACACGTGCTTGG was tested, and the “relative binding free energy” value was -0.11 kcal/mol. In the case of GTTGACACGTGTTGCT, the “relative binding free energy” value is reported as -0.1 kcal/mol. With TGTTTCACGTGATGCT the “relative binding free energy” value was 0.39 kcal/mol. With GAAAGCACGTGGGTGG the “relative binding free energy” value was -0.09 kcal/mol. TGTGGCACGTGGAAAT was tested, and the “relative binding free energy” value was 0.05 kcal/mol. TGGAACACGTGGGAGC was tested, and the “relative binding free energy” value was -0.02 kcal/mol. In the case of TGGCGCACGTGGGCGA, the “relative binding free energy” value is reported as -0.25 kcal/mol. In the case of ATGTACACGTGGAGTT, the “relative binding free energy” value is reported as 0.08 kcal/mol. For TGGGGCACGTGGCGCG, the “relative binding free energy” value was -0.25 kcal/mol. GGGGACACGTGGCATA was tested, and the “relative binding free energy” value was -0.02 kcal/mol. With ATAGTCACGTGATTCG the “relative binding free energy” value was 0.16 kcal/mol. GGGAGCACGTGTGAAA was tested, and the “relative binding free energy” value was 0 kcal/mol. For TGTATCACGTGTTCGA, the “relative binding free energy” value was 0.08 kcal/mol. TTACGCACGTGGGGTG was tested, and the “relative binding free energy” value was -0.24 kcal/mol. In the case of TTGTTCACGTGTCTTG, the “relative binding free energy” value is reported as 0.41 kcal/mol. In the case of GTGTACACGTGTTCTT, the “relative binding free energy” value is reported as 0.04 kcal/mol. In the case of TCGTTCACGTGAGTTG, the “relative binding free energy” value is reported as 0.47 kcal/mol. TTATGCACGTGCAGTA was tested, and the “relative binding free energy” value was -0.03 kcal/mol. CTGATCACGTGTGCGG was tested, and the “relative binding free energy” value was 0.05 kcal/mol. With GAGCTCACGTGTGGTA the “relative binding free energy” value was 0.24 kcal/mol. For GCGGCCACGTGGAGGG, the “relative binding free energy” value was -0.12 kcal/mol. In the case of GAATCCACGTGGGTTT, the “relative binding free energy” value is reported as 0.1 kcal/mol. In the case of GGGCGCACGTGGTGAT, the “relative binding free energy” value is reported as -0.11 kcal/mol. For TGGTCCACGTGGATAT, the “relative binding free energy” value was 0.01 kcal/mol. For TGTTCCACGTGCGGAT, the “relative binding free energy” value was 0.13 kcal/mol. With CGATTCACGTGGTTGG the “relative binding free energy” value was 0.07 kcal/mol. With AAAGACACGTGATGTG the “relative binding free energy” value was 0.13 kcal/mol. With CTGGTCACGTGTAGAT the “relative binding free energy” value was 0.28 kcal/mol. In the case of TGCGTCACGTGTATAG, the “relative binding free energy” value is reported as -0.01 kcal/mol. ACTGTCACGTGTGGCT was tested, and the “relative binding free energy” value was 0.14 kcal/mol. For TATGACACGTGGTGCG, the “relative binding free energy” value was -0.08 kcal/mol. TAGGCCACGTGAGGAG was tested, and the “relative binding free energy” value was 0.13 kcal/mol. TATAACACGTGTGTGG was tested, and the “relative binding free energy” value was -0.1 kcal/mol. For TATGCCACGTGTGGGA, the “relative binding free energy” value was -0.1 kcal/mol. ACTTTCACGTGGTGCT was tested, and the “relative binding free energy” value was 0.15 kcal/mol. For TTCTGCACGTGATTTT, the “relative binding free energy” value was 0.08 kcal/mol. For TACTTCACGTGTTGTT, the “relative binding free energy” value was 0.19 kcal/mol. For TAATTCACGTGTTCGG, the “relative binding free energy” value was 0.23 kcal/mol. In the case of ATAGACACGTGTTGTG, the “relative binding free energy” value is reported as -0.12 kcal/mol. AGAAGCACGTGGGATA was tested, and the “relative binding free energy” value was -0.14 kcal/mol. In the case of AATTTCACGTGGAATT, the “relative binding free energy” value is reported as 0.43 kcal/mol.
